From PubChem BioAssay AID686978 (National Center for Advancing Translational Sciences (NCATS), 2013)
Screen size: about 420,000 compounds; about 64,000 (15%) were called active. This list was built around the results that the source calls inconclusive (neither active nor inactive); the mix of calls is not that of the screen. Calls come from the whole dose curve; as a rule, active = well fitted inhibition curve with a large enough effect; inconclusive = small, poorly fitted or top-dose-only effect; inactive = flat fitted curve, though single readings scatter. Potencies of inconclusive entries are left out as doubtful fits.

Test: qHTS for Inhibitors of human tyrosyl-DNA phosphodiesterase 1 (TDP1): qHTS in cells in absence of CPT; note: nearly all actives have a fitted effect of over 55% in size
Settings: DT40 Tdp1-/- hTDP1 cells, no CPT, ATP luminescence, 48 h; activity change, negative = growth inhibition: at 46.2 µM (top of the series) unless noted
How it was run: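 A cellular qHTS used chicken DT40 cells lacking endogenous Tdp1 but carrying stably transfected human TDP1. Compounds were applied without camptothecin, and cell growth kinetics were judged by ATP-dependent luminescence after ≥48 hr.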
% is set by controls: 0 for no effect and ±100 for the full control effect; potency is the fitted concentration of half-maximal effect; tags give direction and shape of the fitted curve.

SMILES | Potency | activity change, negative = growth inhibition
O=C(Nc1ccc(Oc2ccc(NC(=O)c3ccco3)c(NC(=O)c3ccco3)c2)cc1)c1ccco1 | inconclusive [inhibitor, single point] | –
COc1ccc(C(=O)C2CCCN(C(=O)CCc3ccccn3)C2)c(C)c1 (stereo unspecified) | inconclusive [inhibitor, partial curve] | –
CC(C)(C)C1CCc2c(sc(N)c2C(N)=O)C1 (stereo unspecified) | active: 18.4 µM | –
O=C(CCCCN1CCCCC1)c1ccccc1 | – | inactive: -14.5%
CN(C)C(=O)CCCc1nc(-c2ccc(Cl)cc2)no1 | inconclusive [inhibitor, single point] | –
O=C(NC1CCCC1)C(c1ccccc1)n1c(-c2cccs2)nc2ccccc21 (stereo unspecified) | inconclusive [inhibitor, single point] | –
N#CCC(=O)NNc1c([N+](=O)[O-])cc(C(F)(F)F)cc1[N+](=O)[O-] | inconclusive [inhibitor, single point] | –
CCn1c2ccccc2c2nnc(NN)nc21 | inconclusive [inhibitor, single point] | –
CCC(C)[C@H](NC(=O)N1CCn2c1nc1ccccc12)C(=O)NCc1ccccc1 (stereo partly specified) | inconclusive [inhibitor, single point] | –
Cc1ccc(NC(=O)C2(C)CCN2C(=O)Cc2ccc(-c3ccccc3)cc2)cc1 (stereo unspecified) | active: 16.4 µM | –
Cc1ccc(N2CC(C(=O)Nc3nccs3)CC2=O)cc1Cl (stereo unspecified) | inconclusive [inhibitor, single point] | –
Cc1cccc(C(=O)O)c1O | – | inactive: -5.17%
Cc1ccsc1C(=O)N1CCCC(N2CCN(c3cccc(Cl)c3)CC2)C1 (stereo unspecified) | inconclusive [inhibitor, partial curve] | –
COc1ccc(C(=O)NC2CCc3ccccc32)cc1OC1CCN(C(C)=O)CC1 (stereo unspecified) | inconclusive [inhibitor, single point] | –
Cc1ccc2c(c1)C=CC(C)N2C(=O)c1ccccc1 (stereo unspecified) | active: 16.4 µM | –
Cc1oc(=O)c(NC(=O)c2ccccc2)cc1C(=O)c1ccccc1 | – | inconclusive: -31.1% [inhibitor]
CCCN(CCC)CCNC(=O)Cn1ncc2c([nH]c3ccc(C)cc32)c1=O | – | inactive: -7.6%
COc1ccc2[nH]c3c(c2c1)CCN1C(=O)N([C@@H](C)C(=O)NCCc2ccc(OC)c(OC)c2)C(=O)[C@]31C | active: 14.6 µM | –
N/C(=N\OC(=O)COc1ccc(Cl)cc1Cl)c1ccncc1 | – | inactive: -26.4%
CSc1ccccc1-c1cnc2cccnn12 | – | inactive: -27.9%
COc1cc(C(c2sc3nc(C)nn3c2O)N2CCc3ccccc3C2)cc(OC)c1OC (stereo unspecified) | active: 10.3 µM | –
Cc1ccc(-c2cc(C(=O)NCCCn3ccnc3)no2)cc1 | inconclusive [inhibitor, single point] | –
CCOc1ccc2oc(=O)cc(CN3CCN(C(=O)c4cccc(F)c4)CC3)c2c1 | inconclusive [inhibitor, single point] | –

SMILES | Potency | activity change, negative = growth inhibition
Cc1ccc(C(=O)N2CCN(c3ccc([N+](=O)[O-])c(NCc4cccnc4)c3)CC2)cc1 | inconclusive [inhibitor, single point] | –
Cc1nn(-c2ccccc2)c(C)c1C(=O)OCC(=O)Nc1ccccc1C(F)(F)F | inconclusive [inhibitor, single point] | –
CCc1cccc(-n2c(=O)c3cccnc3n2CC(=O)NCc2ccccc2Cl)c1 | inconclusive [inhibitor, single point] | –
Cc1ccc2c(c1)CCCN2CC(=O)N(C)c1c(N)n(Cc2ccccc2)c(=O)[nH]c1=O | – | inactive: -3.64%
COc1ccc(OC)c(CC(=O)Nc2ccc3c(c2)c(=O)n(C)n3Cc2cccc(C(F)(F)F)c2)c1 | inconclusive [inhibitor, single point] | –
Cc1ccc(-c2cc(C(=O)OCC(=O)N(C)C3CCS(=O)(=O)C3)c3ccccc3n2)c(C)c1 (stereo unspecified) | – | inactive: -25.6%
N#C/C(=C\N1CCOCC1)S(=O)(=O)c1ccc(Cl)cc1 | – | inactive: -7.62%
O=C(Nc1ccc2c(c1)OCCO2)C(c1ccc(C(F)(F)F)cc1)n1c(=O)c(-c2cc3ccccc3[nH]2)nc2ccccc21 (stereo unspecified) | inconclusive [inhibitor, single point] | –
Cc1ccc2c(c1)N(C(=O)CCC(=O)NCCCN1CCN(C)CC1)CC(C)O2 (stereo unspecified) | – | inactive: 11.6%
COc1ccc(C2Nc3ccc(NC(C)=O)cc3C(=O)N2Cc2ccccc2)cc1COc1ccc(NC(C)=O)cc1 (stereo unspecified) | active: 17.8 µM | –
CCOC(=O)c1ccc(NC(=O)CCc2c(C)n(CC)c3cc(-c4ccccc4OC)nn3c2=O)cc1 | – | inactive: -12.2%
COc1cc(OC)cc(-c2c(-c3cccs3)c3cc(-c4cccc5[nH]ccc45)ccc3n2C)c1 | inconclusive [inhibitor, single point] | –
O=C(NCc1ccco1)Nc1cccc([N+](=O)[O-])c1 | – | inactive: -10.2%
O=C(NCc1ccccc1)C1(c2ccccc2)CCN(S(=O)(=O)c2ccccc2)CC1 | inconclusive [inhibitor, partial curve] | –
O=C(CSCC(=O)Nc1nc(-c2ccc3c(c2)OCO3)cs1)Nc1nccs1 | active: 25.9 µM | –
O=C1N[C@H]2CC=C[C@H]2N(Cc2cccs2)c2ccccc21 | – | inactive: -10.1%
CCC(C(=O)N1CCc2cc(OC)c(OC)cc2C1)c1ccccc1 (stereo unspecified) | inconclusive [inhibitor, partial curve] | –
CC(OC(=O)CSCC(=O)Nc1ccc(Cl)cc1)C(=O)N(C)Cc1ccccc1 (stereo unspecified) | inconclusive [inhibitor, partial curve] | –
CCOc1cccc(C2C=C(c3ccc4c(c3)OCO4)NC(c3ccc(Br)cc3)N2)c1O (stereo unspecified) | active: 15.8 µM | –
O=C1c2ccccc2OCOc2ccccc21 | – | inactive: -4.21%
O=C(Nc1cccnc1)c1ccc(C(=O)Nc2cccnc2)cc1 | inconclusive [inhibitor, single point] | –
O=C(CSc1nnc2n(C3CCCC3)c(=O)c3ccccc3n12)N1CCCCCC1 | active: 23.1 µM | –
NC(=O)c1ccc(OCC(F)(F)C(F)(F)C(F)(F)C(F)(F)C(F)(F)C(F)F)cc1 | – | inactive: -11.2%
